According to PubChem BioAssay AID1508642 (National Center for Advancing Translational Sciences (NCATS), 2021):
Screen size: about 43,000 compounds; about 200 (0.47%) were called active. Another 12% or so got no clear call; they are omitted. Calls come from the whole dose curve; as a rule, active = well fitted cell-killing curve with a large enough effect; inconclusive = small, poorly fitted or top-dose-only effect, or effect the other way; inactive = flat fitted curve, though single readings scatter. The list shows a part of the results.

test: Cell viability qHTS assay in S16 Pmp22-F2sN cells; settings: S16 Pmp22-F2sN Schwann cells (luciferase reporters placed in the Pmp22 gene) viability, CellTiter-Glo, 24 h; series mostly up to 57.5 µM; activity change, negative = cytotoxicity: at the top concentration; note: nearly all actives have a fitted effect of over 65% in size
Procedure, shortened: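 S16 Schwann cells carrying the Pmp22-F2sN reporter, seeded in 1536-well format, were exposed to library compounds for 24 h at 37C. Viability was read as CellTiter-Glo luminescence after 15 min at room temperature.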
% is set by controls: 0 for no effect and ±100 for the full control effect.

Row | Structure (SMILES) | activity change, negative = cytotoxicity
1 | COC(=O)c1ccc(NC(=O)N2CCc3c([nH]c4ccccc34)C2c2ccc(C)cc2)cc1 (configuration not stated) | inactive: 5.78%
2 | Cc1ccc(C)c(N2CCN(C(=O)C(C)n3nc(C)c4sc5ccccc5c4c3=O)CC2)c1 (configuration not stated) | inactive: -2.27%
3 | COc1cccc(CNC(=O)c2cc(-c3cccs3)nc3ccccc23)c1 | inactive: 6.9%
4 | COCCCNC(=O)CSc1nc2nc(C)c(Cc3ccccc3Cl)c(C)n2n1 | inactive: 18.3%
5 | COC(=O)c1ccc(NC(=O)CC2C(=O)N(c3ccccc3)C(=O)N2C2CCCC2)cc1 (configuration not stated) | inactive: 3.98%
6 | COc1ccc(CC(=O)N2CC(=O)Nc3ccc(Br)cc3C2c2ccc(F)cc2)cc1OC (configuration not stated) | inactive: -23%
7 | COc1cc2nc(NCc3ccccc3Cl)n3nc(-c4cccnc4)nc3c2cc1OC | inactive: 14.7%
8 | COc1ccc(Cn2c(C(=O)O)c(CNC3CCC(C)CC3)c3ccc(C)cc32)cc1 (configuration not stated) | inactive: -29.1%
9 | COc1cc(C(=O)N2CCC(c3ccncc3)CC2)cc(OC)c1OC | inactive: -12.2%
10 | Cc1cccc(-n2c(SCC(=O)Nc3ccccc3Cl)nc3n[nH]c(C)c3c2=N)c1 | inactive: -23.8%
11 | COc1cccc(C(=O)Nc2ccc3nc(SCc4ccc(C)cc4)sc3c2)c1 | inactive: 4.69%
12 | Cn1nc(-c2ccccc2)c(-c2ccccc2)c(C(=O)Nc2ccc(S(N)(=O)=O)cc2)c1=O | inactive: -1.37%
13 | COc1ccc(NC(=O)c2c(NCc3cccc(OC)c3)sc3c2CCC3)cc1 | inactive: -0.328%
14 | Cc1cccc(Nc2ncnc3c2cnn3C)c1C | inactive: -3.2%
15 | COc1ccc(C)c2sc(N(Cc3cccnc3)C(=O)COc3ccccc3)nc12 | inactive: -3.7%
16 | Cc1ccc(C)c(N2CCN(C(=O)c3cc(S(=O)(=O)N4CCCC4)c[nH]3)CC2)c1 | inactive: 4.98%
17 | CCCOc1ccc(C(=O)Nc2ccc(NC(=O)c3cccc(Cl)c3)cc2)cc1 | inactive: 4.35%
18 | COc1cccc(Nc2cc(-c3ccccc3)nc(C)n2)c1 | inactive: -28.3%
19 | CN(C)c1ccc(-c2nc(-c3ccncc3)no2)cc1[N+](=O)[O-] | inactive: -5.2%
20 | Cc1ccc2c(c1)N(C(=O)N1CCC(C(=O)NC3CCCCCC3)CC1)CCO2 | inactive: 5.39%
21 | Cc1ccc(-n2ncc3c(N4CCN(C)CC4)ncnc32)cc1 | inactive: 13.2%
22 | CCCN(CCC)C(=O)Cn1c(=O)n(-c2ccc(C)cc2)c(=O)c2ccc(C(=O)NCc3ccccc3Cl)cc21 | inactive: 12%
23 | CCc1sc(Nc2ccc(C)cc2Br)nc1-c1cc2cccc(OC)c2oc1=O | inactive: -3.49%
24 | CCOC(=O)CSc1nc2c(sc3ccccc32)c(=O)n1Cc1ccc(C)cc1 | inactive: 26.4%
25 | CC(=O)NCCNc1nc2c(-c3ccc(C)cc3)nnn2c2ccccc12 | inactive: 24%
26 | CCC1CN(C(=O)N2CCC(C(=O)NCCc3ccc(C)cc3)CC2)c2ccccc2O1 (configuration not stated) | inactive: -6.06%
27 | Cc1oc(-c2ccccc2)nc1CSc1nnc(C)n2c1cc1sccc12 | inactive: 5.56%
